The campaign covered roughly 310,000 compounds. About 2,200 (0.71%) showed an effect of 50% or more. Effects have a minus sign here. The list shows a part of the results.
These compounds were tested against human ether-à-go-go-related gene (hERG) potassium channel (human, UniProt Q12809) (assay: primary screen, population patch clamp on CHO cells stably expressing hERG).
Chain of human ether-à-go-go-related gene (hERG) potassium channel (Q12809 whole entry, looked up): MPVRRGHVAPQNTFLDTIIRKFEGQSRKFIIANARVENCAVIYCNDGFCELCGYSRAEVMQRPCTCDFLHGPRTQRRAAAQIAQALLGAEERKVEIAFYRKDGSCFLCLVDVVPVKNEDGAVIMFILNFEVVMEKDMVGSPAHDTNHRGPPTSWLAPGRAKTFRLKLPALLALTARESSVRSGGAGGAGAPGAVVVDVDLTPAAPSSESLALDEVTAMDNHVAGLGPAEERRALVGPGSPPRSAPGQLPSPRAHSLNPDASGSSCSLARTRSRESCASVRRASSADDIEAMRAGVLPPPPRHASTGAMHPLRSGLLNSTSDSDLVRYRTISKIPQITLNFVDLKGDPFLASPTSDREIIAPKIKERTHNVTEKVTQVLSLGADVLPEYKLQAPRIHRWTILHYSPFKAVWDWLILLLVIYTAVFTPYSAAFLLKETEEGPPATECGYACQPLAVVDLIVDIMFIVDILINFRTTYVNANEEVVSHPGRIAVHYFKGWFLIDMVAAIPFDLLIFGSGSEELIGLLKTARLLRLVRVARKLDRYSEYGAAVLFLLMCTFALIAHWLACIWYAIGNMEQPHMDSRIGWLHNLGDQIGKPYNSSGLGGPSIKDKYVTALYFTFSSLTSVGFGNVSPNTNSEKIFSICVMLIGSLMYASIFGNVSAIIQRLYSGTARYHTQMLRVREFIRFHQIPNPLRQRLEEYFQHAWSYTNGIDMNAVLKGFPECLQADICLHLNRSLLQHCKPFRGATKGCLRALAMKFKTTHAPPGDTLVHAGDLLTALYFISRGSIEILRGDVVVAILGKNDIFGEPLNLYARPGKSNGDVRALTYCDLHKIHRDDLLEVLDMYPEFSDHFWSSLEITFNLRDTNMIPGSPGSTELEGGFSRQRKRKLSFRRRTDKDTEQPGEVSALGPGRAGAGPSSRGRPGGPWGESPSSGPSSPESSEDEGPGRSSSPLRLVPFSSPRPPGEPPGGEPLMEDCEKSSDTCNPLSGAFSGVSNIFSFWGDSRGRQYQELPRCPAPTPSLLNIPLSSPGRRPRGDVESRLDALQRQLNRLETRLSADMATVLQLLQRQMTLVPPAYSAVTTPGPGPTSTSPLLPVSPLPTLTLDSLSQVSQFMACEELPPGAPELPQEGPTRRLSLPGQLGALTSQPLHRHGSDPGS
In the case of O=C1CC(c2ccccc2Cl)=NN(c2ncnc3ccccc23)C1=O, the “hERG current change (%, negative = inhibition) at 1uM” value was 14.8%. For C=C(C(=O)c1ccccc1)C(C)C(=C)C(=O)c1ccccc1, the “hERG current change (%, negative = inhibition) at 1uM” value was 13.4%. CCC1Sc2ccccc2N(CC(=O)NC2CCCCC2)C1=O (stereo not drawn) was tested, and the “hERG current change (%, negative = inhibition) at 1uM” value was 2.42%. For Cc1oc2c(CN3CCOCC3)c(O)ccc2c(=O)c1-c1ccc(Br)cc1, the “hERG current change (%, negative = inhibition) at 1uM” value was 4.7%. CCCCn1c(=O)c(C(C)=O)c(O)c2ccccc21 was tested, and the “hERG current change (%, negative = inhibition) at 1uM” value was 5.59%. In the case of c1ccc(C(c2ccccc2)N2CCN(c3nc4ccccc4n4cnnc34)CC2)cc1, the “hERG current change (%, negative = inhibition) at 1uM” value was 5.48%. In the case of CCOC(=O)c1c(NC(=O)CN2CCCCC2)sc(C)c1C, the “hERG current change (%, negative = inhibition) at 1uM” value was 12.4%. In the case of O=C(COC(=O)Cc1ccccc1F)Nc1cc(S(=O)(=O)N2CCOCC2)ccc1N1CCCC1, the “hERG current change (%, negative = inhibition) at 1uM” value was -0.931%. In the case of Nc1ccccc1OCCOCCOCCOc1ccccc1N, the “hERG current change (%, negative = inhibition) at 1uM” value was 5.42%. In the case of CCC(C)NC(=O)c1ccc2nc(Cc3ccc(OC)cc3)oc2c1 (stereo not drawn), the “hERG current change (%, negative = inhibition) at 1uM” value was 16.8%. With Oc1ccc2ccccc2c1C=Nc1cc(C(F)(F)F)ccc1N1CCCC1 the “hERG current change (%, negative = inhibition) at 1uM” value was 8.77%. O=C1c2ccccc2C(=O)N1CC1CCCO1 (stereo not drawn) was tested, and the “hERG current change (%, negative = inhibition) at 1uM” value was -0.0299%. With Nc1c(C(=O)O)cnn1-c1ccccc1 the “hERG current change (%, negative = inhibition) at 1uM” value was 14.5%. CCCCn1c(SCC(=O)OCC)nnc1-c1ccoc1C was tested, and the “hERG current change (%, negative = inhibition) at 1uM” value was 8.45%. With NCCc1ccc(O)cc1 the “hERG current change (%, negative = inhibition) at 1uM” value was 2.68%. In the case of O=C(NCCN1CCOCC1)c1cc2ccccc2[nH]1, the “hERG current change (%, negative = inhibition) at 1uM” value was 8.3%. COc1cccc(C(=O)Nc2ccc(S(=O)(=O)Nc3onc(C)c3C)cc2)c1 was tested, and the “hERG current change (%, negative = inhibition) at 1uM” value was 21%. With COc1cccc(-c2nn(-c3ccccc3)cc2/C=C(\C#N)C(=O)NCCCn2ccnc2)c1 the “hERG current change (%, negative = inhibition) at 1uM” value was 4.03%. In the case of CCOc1ccc(NC(=O)C2CC(=O)N(Cc3ccco3)C2)cc1 (stereo not drawn), the “hERG current change (%, negative = inhibition) at 1uM” value was 13.4%. In the case of O=C(CN1C(=O)CCC1=O)NC(=O)NC1CCCC1, the “hERG current change (%, negative = inhibition) at 1uM” value was 14.9%. With CCN(CC(=O)Nc1ccccc1C(F)(F)F)C(=O)/C=C/c1ccc(Cl)c([N+](=O)[O-])c1 the “hERG current change (%, negative = inhibition) at 1uM” value was 19.9%. With CC1(C)Cc2ccccc2C(N/N=C/c2cccc(F)c2)=N1.Cl the “hERG current change (%, negative = inhibition) at 1uM” value was 2.6%. For CC(=O)Nc1ccc(S(=O)(=O)N2CCCCC2c2cccnc2)cc1 (stereo not drawn), the “hERG current change (%, negative = inhibition) at 1uM” value was 12%. In the case of CC/C(=C\C(=O)c1ccncc1)Nc1ccc(Br)cc1, the “hERG current change (%, negative = inhibition) at 1uM” value was -2.23%. For Cc1ccc(C)c(NC(=S)Nc2cccc3cnccc23)c1, the “hERG current change (%, negative = inhibition) at 1uM” value was 8.56%. For Cc1ccc(C)c(OCCC(=O)OCC(=O)NC(=O)NCc2ccccc2)c1, the “hERG current change (%, negative = inhibition) at 1uM” value was 3.7%. In the case of COc1cc2nc(NC(=O)c3ccc(Cl)cc3)[nH]c(=O)c2cc1OC, the “hERG current change (%, negative = inhibition) at 1uM” value was 12.3%. In the case of Cc1ccc(N2CCN(C(=O)c3cc(COc4c(C)cccc4C)on3)CC2)c(C)c1, the “hERG current change (%, negative = inhibition) at 1uM” value was 14.1%. For CC(=O)OCc1nc2ccccc2s1, the “hERG current change (%, negative = inhibition) at 1uM” value was 6.71%. With CC1(C)CC(NC(=O)c2ccc3c(c2)OCO3)CC(C)(C)N1 the “hERG current change (%, negative = inhibition) at 1uM” value was 11.9%. For CN1C(=O)N(C)C(=O)C2(Cc3cc(NC(=O)c4ccccc4Cl)ccc3N3CCCC32)C1=O (stereo not drawn), the “hERG current change (%, negative = inhibition) at 1uM” value was 12.8%. CC(=O)C1=C(O)C(=O)N(CCc2c[nH]c3ccccc23)C1c1ccccc1 (stereo not drawn) was tested, and the “hERG current change (%, negative = inhibition) at 1uM” value was 9.09%. O=C(N/N=C/c1c(O)n(Cc2ccccc2)c(=O)c2ccccc12)c1cccnc1 was tested, and the “hERG current change (%, negative = inhibition) at 1uM” value was 16.1%. CCCCCOc1ccc(N2C(=O)C3C4C=CC(C3C2=O)N(C)C4=O)cc1 (stereo not drawn) was tested, and the “hERG current change (%, negative = inhibition) at 1uM” value was -11.5%. O=C(O)Cc1sc(-c2ccccc2Cl)nc1-c1ccccc1 was tested, and the “hERG current change (%, negative = inhibition) at 1uM” value was 4.91%. Cc1cc2ccccc2c(=O)n1CC(=O)NCC(=O)N1CCN(c2ccccc2F)CC1 was tested, and the “hERG current change (%, negative = inhibition) at 1uM” value was 9.66%. With COC(=O)c1cc(S(=O)(=O)Nc2cc(OC)cc(OC)c2)cn1C the “hERG current change (%, negative = inhibition) at 1uM” value was 6.29%. With CC(n1cnnn1)C12CC3CC(CC(C3)C1)C2 (stereo not drawn) the “hERG current change (%, negative = inhibition) at 1uM” value was -0.398%. For Nc1nc(SCC(=O)c2ccc([N+](=O)[O-])cc2)n[nH]1, the “hERG current change (%, negative = inhibition) at 1uM” value was 1.72%. CN(C(=O)COC(=O)C(C)(C)Oc1ccc(Cl)cc1)c1c(N)n(Cc2ccccc2)c(=O)[nH]c1=O was tested, and the “hERG current change (%, negative = inhibition) at 1uM” value was 16.5%. COc1cccc(CNCCc2c[nH]c3ccccc23)c1OCc1ccccc1.Cl was tested, and the “hERG current change (%, negative = inhibition) at 1uM” value was -1.56%. In the case of CN(C)/C=C/C(=O)c1c(F)cccc1F, the “hERG current change (%, negative = inhibition) at 1uM” value was 6.68%. In the case of CC(C)c1nc(C#N)c(N2CCOCC2)o1, the “hERG current change (%, negative = inhibition) at 1uM” value was 10.4%. For Cc1ccc(C2(c3ccccc3)NC(=O)N(CC(=O)NC3CCS(=O)(=O)C3)C2=O)cc1C (stereo not drawn), the “hERG current change (%, negative = inhibition) at 1uM” value was 9.38%. With CCOC(=O)Cn1nnnc1CN(Cc1ccc(OC)cc1)Cc1cc2cc(CC)ccc2[nH]c1=O the “hERG current change (%, negative = inhibition) at 1uM” value was -0.139%.

— PMC4336329 (PLoS ONE, 2015)
